Source: PubChem BioAssay AID504832 (National Center for Advancing Translational Sciences (NCATS), 2011)
Screen size: about 310,000 compounds; about 18,000 (5.8%) were called active. The inconclusive results got no clear call from the source; some entries with a clear call stand among them for comparison. Calls come from the whole dose curve; as a rule, active = well fitted inhibition curve with a large enough effect; inconclusive = small, poorly fitted or top-dose-only effect, or another doubt; inactive = no such curve, though single readings can be large or run the other way. No potency is given beside an inconclusive call; the fits are too rough.

test: Primary qHTS for delayed death inhibitors of the malarial parasite plastid, 48 hour incubation; conditions: P. falciparum luciferase growth in erythrocytes; series mostly up to 28.7 µM
How it was run: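 Growth was read as firefly luciferase luminescence after a 48 h, 37 C, 5% CO2 exposure of compounds to reporter-bearing P. falciparum cultures (0.1% parasitemia, 2% hematocrit final) in Albumax-supplemented RPMI 1640.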
Potency is the fitted concentration of half-maximal effect; tags give direction and shape of the fitted curve.

Compound	Potency
Cc1ccccc1Cn1nnc(-c2ccc(C(=O)O)cc2)n1	inactive
COc1ccc(C2c3ccc4ccccc4c3Oc3ncn(CCCO)c(=N)c32)cc1 (stereo not drawn)	active: 5.22 µM
C=CCn1c(SCC(=O)N(CCO)CCO)nc2sc3c(c2c1=O)CCC3	inconclusive [inhibitor, full curve, poor fit]
COc1ccc(S(=O)(=O)N2CCC(C(=O)NCc3cccnc3)CC2)cc1Cl	inactive
COc1cc(-c2noc(CCC(=O)NC3CCCCC3)n2)cc(OC)c1OC	inconclusive [inhibitor, partial curve, poor fit]
COc1ccc(-c2cnc(OC(C)(C)C)nc2OC(C)(C)C)cc1OC	active: 10.4 µM
CCOC(=O)C1CCN(c2ccccc2CN2CCN(c3ccccc3OCC)CC2)CC1	inconclusive [inhibitor, partial curve]
O=C(/C=C/c1ccco1)Nc1nc(-c2ccccn2)cs1	inconclusive [inhibitor, partial curve]
Cc1ccc(NC(=O)CSc2ccc(-c3cccnc3)nn2)cc1	inconclusive [inhibitor, single point]
Cc1ccccc1Cn1nc(C)c(NC(=O)c2noc3c2CCCC3)c1C	inconclusive [inhibitor, single point]
Cc1cccc(C)c1NC(=O)c1ccc([N+](=O)[O-])s1	inconclusive [inhibitor, single point]
COc1ccc(OCCCC(=O)OCC(=O)Nc2ncc(Cl)cc2Cl)cc1	inconclusive [inhibitor, single point]
Cc1nc(-c2ccc(C(=O)N3CCCC3)cc2)cs1	inactive
O=C(NC(c1ccccc1)c1ccccc1)c1cccc(S(=O)(=O)NCc2ccccc2)c1	inconclusive [inhibitor, single point]
Cc1ccc(C)c(NC(=O)CN(C)C(=O)C2COc3ccccc3O2)c1 (stereo not drawn)	inconclusive [inhibitor, single point]
COc1ncccc1-c1nnn(-c2ccc(C)cc2)n1	inactive
CSc1sc(C(=O)NN)c2c1C1(CCC2)SCCS1	inconclusive [inhibitor, partial curve, poor fit]
C/C(=N\NC(=O)c1nnn(-c2nonc2N)c1-c1ccc2c(c1)OCO2)c1ccc(F)cc1	inconclusive [inhibitor, partial curve]
Cc1ccc(O)c(C2=NNC(c3ccc(Cl)cc3)C2)c1 (stereo not drawn)	inconclusive [inhibitor, partial curve]
COCCn1c(C)cc(C(=O)CN2C(=O)NC3(CCCCCCC3)C2=O)c1C	inactive
O=C(CN1C(=O)NC2(CCCc3ccccc32)C1=O)c1ccc(Br)cc1 (stereo not drawn)	inconclusive [inhibitor, partial curve, poor fit]
COc1ccc(/C=C2\SC(=O)N(CCC(=O)N3CCCCC3CCO)C2=O)cc1 (stereo not drawn)	inconclusive [inhibitor, single point]
CSCCC(NC(=O)c1ccccc1Cl)C(=O)NCC1COc2ccccc2O1 (stereo not drawn)	inconclusive [inhibitor, partial curve]

Compound	Potency
N#C/C(=C\c1ccc[nH]1)C(=O)Nc1ccccc1[N+](=O)[O-]	inactive
COc1cc2[nH]c(C(=O)NCc3ccccc3)cc2c(OC)c1OC	inconclusive [inhibitor, single point]
CN(C)S(=O)(=O)c1cc(NC(=O)C2=COCCO2)ccc1Cl	inactive
Cc1cccc(N2CCN(C(c3ccncc3)c3nnnn3C(C)(C)C)CC2)c1C (stereo not drawn)	inconclusive [inhibitor, partial curve, poor fit]
COc1cccc(CN(C)C(=O)c2ccc(C)c(S(=O)(=O)N3CCCCC3)c2)c1	inconclusive [inhibitor, single point]
C#CC[N+]1(CC#Cc2cccc3ccccc23)CCOCC1	active: 3.7 µM
CCN(CC)S(=O)(=O)c1ccc(/C=C/C(=O)OCC(=O)NCc2cccs2)cc1	inconclusive [inhibitor, single point]
CCCCN(CCCNC(=O)Cn1nc(CC)n2c(cc3sc(C)cc32)c1=O)Cc1ccccc1	inconclusive [inhibitor, single point]
O=C(NCCCn1ccnc1)c1cc(-c2cccnc2)nc2ccc(Br)cc12	active: 11.7 µM
COCCn1nnnc1C(c1cccs1)N1CCN(c2cccc(C(F)(F)F)c2)CC1 (stereo not drawn)	inconclusive [inhibitor, single point]
O=C(Nc1ncccc1Cl)C(Sc1ccccc1)c1ccccc1 (stereo not drawn)	inconclusive [inhibitor, single point]
Cc1c(NC(=O)c2ccc(N3C(=O)C4C5C=CC(C5)C4C3=O)cc2)c(=O)n(-c2ccccc2)n1C (stereo not drawn)	inactive
COc1ccccc1OCCOc1ccc(/C=C2\C(=N)N3N=C(S(C)(=O)=O)SC3=NC2=O)cc1	inconclusive [inhibitor, partial curve]
CCCCNc1nc2ccccc2nc1Cl	inconclusive [inhibitor, single point]
CC(C)OCCCNC(=O)C(Cc1ccccc1)NS(=O)(=O)c1ccc2c(c1)CCC(=O)N2 (stereo not drawn)	inactive
Cc1ccc(C)c(S(=O)(=O)NCC(c2ccco2)N2CCc3ccccc3C2)c1 (stereo not drawn)	inconclusive [inhibitor, partial curve, poor fit]
CC(=O)c1cccc(NC(=O)Nc2ccc3c(c2)CCC3)c1	inactive
O=C1C=C(c2ccc(F)cc2OCc2ccccc2)C[C@@H](c2ccc(Cl)cc2)C1	inconclusive [inhibitor, partial curve, poor fit]
CC(=O)Oc1ccc(OC(C)=O)c(SCCCCCN2CCOCC2)c1	active: 5.22 µM
CN1CCN(C(=O)c2ccc3c(c2)NC(=O)/C(=C/c2ccccc2)S3)CC1	inconclusive [inhibitor, single point]
COc1cc(/C=N/Nc2nn3cnnc3c3ccccc23)ccc1O	inconclusive [inhibitor, single point]
CCOc1cc(CNCCCN2CCOCC2)cc(Br)c1OCc1ccccc1Cl	inconclusive [inhibitor, full curve]
Cc1ccc(C)c(S(=O)(=O)N2CCN(C(=O)CCc3c[nH]c4ccccc34)CC2)c1	inconclusive [inhibitor, partial curve]

Compound	Potency
NC(=O)C1CCN(c2oc(-c3ccccc3)nc2S(=O)(=O)c2ccc(Br)cc2)CC1	inconclusive [inhibitor, partial curve]
CON1C(=O)C(=O)N(OC)C2CCCCC21 (stereo not drawn)	inconclusive [inhibitor, full curve, poor fit]
COc1ccc(CNC(=O)CCCn2nc(C)c3c(C)n(-c4ccc(C)cc4)nc3c2=O)cc1	inconclusive [inhibitor, partial curve]
O=C(Nc1ccccc1C(=O)N1CCN(c2cccc(Cl)c2)CC1)C1=CSCCO1	inconclusive [inhibitor, partial curve]
CCN(C(=O)c1ccc(NC(=O)c2ccco2)cc1)c1ccccc1	inconclusive [inhibitor, single point]
CCOC(=O)Cn1nc(NC(=O)c2ccc3c(c2)OCO3)cc1C	inconclusive [inhibitor, partial curve, poor fit]
Cc1[nH]n(-c2ccccc2)c(=O)c1C=Nc1ccc(S(=O)(=O)N=C(N)N)cc1	inactive
Cc1cc(N2CCOCC2)ccc1/C=C1/SC(=O)NC1=O	inactive
COc1ccc(C(=O)OCc2ccc(C)cc2)cc1S(=O)(=O)N1CCOCC1	inconclusive [inhibitor, single point]
Cc1ccc(Cl)cc1NC(=O)COC(=O)C1CCCC1	inactive
CC(C)C(C(=O)NCc1ccco1)N(C(=O)CNS(=O)(=O)c1ccccc1)c1ccccc1 (stereo not drawn)	inactive
COc1ccc(N(C(=O)c2ccccc2C)S(=O)(=O)c2cccs2)cc1	inconclusive [inhibitor, partial curve]
NC(=O)CSc1oc(-c2ccco2)nc1S(=O)(=O)c1ccc(F)cc1	inactive
COc1ccccc1NC(C)C(=O)Nc1ccc(C(C)=O)cc1 (stereo not drawn)	inactive
Cc1cc(=O)n2[nH]c(C)c(-c3ccc(Cl)cc3)c2n1	inconclusive [inhibitor, single point]
CCOc1ccc(N(CC(=O)NCCc2ccccc2)S(=O)(=O)c2ccccc2)cc1	inconclusive [inhibitor, partial curve, poor fit]
O=C(NCCCn1ccnc1)c1ccc(Br)s1	inactive
COc1ccc(-n2c(SCC(=O)NCc3ccco3)nnc2-c2c[nH]c3ccccc23)cc1	inconclusive [inhibitor, partial curve, poor fit]
Cc1ccc(S(=O)(=O)N2CCCCC2)cc1C(=O)N(C)CC(=O)Nc1ccc(Cl)c(C(F)(F)F)c1	inconclusive [inhibitor, single point]
Cn1c(N)c(C(=O)CSc2nnc(C3CC3)n2Cc2ccccc2)c(=O)[nH]c1=O	inconclusive [inhibitor, single point]
CS(=O)(=O)Nc1cccc(-c2cnc3ccccc3n2)c1	inactive
Cn1nc(C(F)(F)F)c(-c2ccc(F)cc2)c1NC(=O)c1cccnc1	inconclusive [inhibitor, single point]
